# Data taken from the supplement of paper PMC4166925.
# ± gives the standard deviation of the averaged measurements. Over roughly 33,000 sequences, “E-score (dimensionless, -0.5 to 0.5)” has its median near -0.046; the highest 2% begin near 0.36. The list shows a part of the results.
# Test system: T1, SpTbr T-box DNA-binding domain (GST fusion)
# T1 sequence: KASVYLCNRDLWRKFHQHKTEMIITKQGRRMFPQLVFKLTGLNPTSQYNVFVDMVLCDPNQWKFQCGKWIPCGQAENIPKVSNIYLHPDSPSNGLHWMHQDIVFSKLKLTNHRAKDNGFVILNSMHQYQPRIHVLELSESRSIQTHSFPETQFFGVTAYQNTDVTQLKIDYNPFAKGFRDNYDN
# Test: PBM E-score of 8-mer (E-score (dimensionless, -0.5 to 0.5)); Tbr is Tbrain of the sea star Patiria miniata (Pm) or the sea urchin Strongylocentrotus purpuratus (Sp); higher = stronger binding preference; most listed sequences are background and not binding sites
# Settings: the construct has about 5 more residues each side
# Summary of the method: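 Expression of GST-fused Tbr T-box DNA-binding domains, each holding the full T-box plus roughly five flanking residues, was carried out in BL21 E. coli at 20 °C, with purification by glutathione affinity chromatography. Universal Agilent arrays made double-stranded by primer extension were incubated with the protein at 200 nM in PBS (pH 7.5), then scanned and quantified. All ungapped 8-mers were scored from probe intensities, and each received an enrichment E-score from the Universal PBM Analysis Suite, averaged over duplicate arrays.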
row,Sequence,PBM E-score of 8-mer
1,CCTGTCTC,0.0231 ± 0.012
2,AAGTGCAC,-0.0937 ± 0.032
3,AATAATAC,-0.0651 ± 0.0048
4,ACACGCTA,0.0841 ± 0.042
5,GCGACTTA,0.154 ± 0.032
6,AGTCATGA,-0.109 ± 0.058
7,CTCCGTAC,-0.139 ± 0.029
8,CGATAAAG,0.143 ± 0.079
9,ACAGGTAC,0.00426 ± 0.058
10,TATCAGGA,-0.0449 ± 0.058
11,CAAACATC,0.176 ± 0.051
12,AAATAGTT,-0.0928 ± 0.01
13,AACGCGCC,0.1509 ± 0.0013
14,GCGGACGC,0.0321 ± 0.12
15,CCCATTGC,-0.103 ± 0.035
16,CTCGACTC,0.0204 ± 0.0078
17,GAAATTCC,-0.176 ± 0.0039
18,ATGGTAAG,-0.0113 ± 0.029
19,ACCTACAA,0.0136 ± 0.0088
20,CACCCTAA,0.1804 ± 0.0016
21,GCGCTCAA,0.0989 ± 0.038
22,GGATGGAC,-0.203 ± 0.0084
23,CATTCTGA,-0.204 ± 0.019
24,ACAGTTCA,0.173 ± 0.014
25,ATCACTGC,0.0129 ± 0.11

row,Sequence,PBM E-score of 8-mer
1,CGCCTCCA,0.167 ± 0.03
2,GAACGATC,0.0814 ± 0.028
3,TCACTGGA,-0.00987 ± 0.067
4,CTACCCGC,-0.0691 ± 0.055
5,CCTCCCGA,-0.0234 ± 0.02
6,GTCTGTAA,-0.144 ± 0.057
7,AGTTAAAC,-0.1689 ± 0.00067
8,AACCATGC,0.0276 ± 0.05
9,ACGGCCAG,0.0753 ± 0.013
10,AAAGTCAA,-0.103 ± 0.025
11,GGCCCAAC,-0.285 ± 0.001
12,GCTCTGAC,-0.176 ± 0.068
13,ACCACATG,-0.0493 ± 0.04
14,CCGGAACA,-0.106 ± 0.066
15,TAAATGAA,-0.182 ± 0.0097
16,ACTTAGGC,-0.0887 ± 0.014
17,ACCCCGTC,0.077 ± 0.024
18,CTGCCAAC,0.0901 ± 0.035
19,GATCACAC,0.479 ± 0.01
20,AGGGTTTC,-0.0336 ± 0.067
21,GCTGTCAC,0.326 ± 0.025
22,CGGTTCCA,-0.0579 ± 0.021
23,CACTCTAG,0.245 ± 0.013
24,CCCGGAGG,-0.191 ± 0.009
25,AGAACGGG,-0.0463 ± 0.052

row,Sequence,PBM E-score of 8-mer
1,CTGAAAAA,-0.104 ± 0.011
2,CCTTATTC,-0.177 ± 0.019
3,ACAACGTA,0.02 ± 0.0086
4,ACACCGCC,0.231 ± 0.084
5,AAATCAAT,0.0618 ± 0.14
6,CGGCCCCG,-0.222 ± 0.033
7,AGGGTTAC,-0.0534 ± 0.021
8,CTATCTAA,-0.0546 ± 0.0069
9,GCAGGCAA,-0.206 ± 0.0059
10,AGTCCAGG,-0.396 ± 0.039
11,CAACCGCG,0.131 ± 0.081
12,AACAAGAT,-0.0261 ± 0.082
13,CGATGCAC,-0.00911 ± 0.047
14,AGCTAGAT,-0.241 ± 0.057
15,ATAGGAGA,-0.311 ± 0.047
16,GGCCGTAA,-0.17 ± 0.077
17,CCCCTTGA,-0.112 ± 0.0033
18,TAGGTTCA,0.011 ± 0.035
19,ATCCACAC,0.357 ± 0.0097
20,TACTTCCA,-0.235 ± 0.062
21,AAGTGTCG,0.425
22,CGTCGGTC,-0.133 ± 0.094
23,ACTAATCG,-0.0161 ± 0.022
24,GAGCACGA,-0.0386 ± 0.024
25,CGCGCTAG,0.173 ± 0.0095

row,Sequence,PBM E-score of 8-mer
1,GATGATCA,0.0806 ± 0.0036
2,GCCATACA,0.0428 ± 0.016
3,ACTAGGGG,0.0152 ± 0.12
4,TGCCTACA,-0.024 ± 0.044
5,GTGGTTAA,0.036 ± 0.034
6,GCGGGGAC,-0.129 ± 0.046
7,AGGTATAA,-0.00898 ± 0.069
8,CGTCGTGC,0.0141 ± 0.056
9,AATGTAAA,0.0264 ± 0.02
10,GTTAGCTA,-0.0435 ± 0.003
11,CCGGAATA,-0.12 ± 0.087
12,GTTAAGCA,0.0224 ± 0.05
13,GCAGACAC,0.131 ± 0.042
14,ATCAAATG,0.008 ± 0.06
15,AGAATGCA,-0.122 ± 0.044
16,CGGCATGC,-0.0842 ± 0.0098
17,CACGGCGG,-0.0101 ± 0.054
18,CTATACGA,0.0571 ± 0.0064
19,ACCTATCA,0.0614 ± 0.042
20,ACCTAGTA,0.0398 ± 0.046
21,AAGATAAG,-0.281 ± 0.022
22,TTCTGCAA,-0.186 ± 0.066
23,ATATGCTC,-0.0266 ± 0.015
24,ATACGCAT,-0.0848 ± 0.0017
25,CCTGGTCA,0.0238 ± 0.0064

row,Sequence,PBM E-score of 8-mer
1,AGATCGTG,0.0588 ± 0.023
2,AAGGCCCA,-0.0598 ± 0.008
3,CACGCATG,0.159 ± 0.012
4,AATCATCT,0.0537 ± 0.035
5,CCCCCAGC,-0.196 ± 0.012
6,CATACCGA,-0.184 ± 0.069
7,AGACCTGC,-0.0155 ± 0.0084
8,AACCGAAA,-0.221 ± 0.047
9,AAGACTTA,-0.0855 ± 0.021
10,AGTCTGCC,-0.314 ± 0.022
11,GGTCCCAA,-0.129 ± 0.072
12,CGACTGGA,-0.194 ± 0.051
13,AAGCAGGA,-0.141 ± 0.0083
14,CCATATGG,-0.265 ± 0.041
15,GGCCTTAA,-0.109 ± 0.056
16,TCTGCCAA,-0.106 ± 0.12
17,GGGCTGTA,-0.17 ± 0.011
18,TACCGGTA,-0.213 ± 0.083
19,AGACGATA,-0.0509 ± 0.047
20,AATGCGGA,-0.0358 ± 0.016
21,CTGAGTCA,-0.113 ± 0.031
22,AACCAAGT,0.0491 ± 0.025
23,ATGTGACC,0.169 ± 0.046
24,ATGAGAGA,-0.216 ± 0.018
25,CAGAGTGC,0.031 ± 0.031

row,Sequence,PBM E-score of 8-mer
1,AGCCTCTA,-0.0268 ± 0.03
2,CCCACCCC,0.182 ± 0.068
3,ACATCTTG,-0.0309 ± 0.0017
4,AGATATTC,-0.243 ± 0.033
5,AATAAACG,-0.164 ± 0.035
6,CATGTGTA,0.0692 ± 0.01
7,AGGCCAAG,-0.289 ± 0.015
8,AGGAGCAC,-0.301 ± 0.059
9,AACAGGGA,-0.271 ± 0.009
10,CGAATGCA,-0.0822 ± 0.032
11,GTTTACAA,0.104 ± 0.051
12,CTCATTAC,-0.119 ± 0.0035
13,TCCGCCAA,0.00811 ± 0.035
14,GGCATGCA,-0.0539 ± 0.017
15,ACGGCCTC,-0.0312 ± 0.028
16,ACTTGCTG,-0.0473 ± 0.073
17,AACCCTAC,0.0156 ± 0.011
18,ATGGACCC,-0.185 ± 0.015
19,ATTATACG,-0.105 ± 0.025
20,GGCTCGTA,-0.2 ± 0.0094
21,CCAGACAA,-0.178 ± 0.023
22,TACTACGA,0.0144 ± 0.01
23,TAACCCGA,-0.134 ± 0.037
24,TCCTCTAA,-0.247 ± 0.059
25,TAGGGTGA,0.0372 ± 0.046

row,Sequence,PBM E-score of 8-mer
1,CTACCCTA,0.064 ± 0.011
2,CTGAAGAC,0.0449 ± 0.039
3,CCGAGTAA,-0.121 ± 0.03
4,GGTCACAC,0.46 ± 0.013
5,ACGACTTA,0.0982 ± 0.025
6,GACTGCAC,-0.171 ± 0.027
7,AAGGGATC,-0.0948 ± 0.076
8,CGGAGATA,0.0372 ± 0.0019
9,AGGAGCTA,-0.1076 ± 0.00074
10,AGTCCAGA,-0.161 ± 0.024
11,ATCCCGTA,-0.0249 ± 0.063
12,CAGCACCG,0.0405 ± 0.025
13,ACAAATAC,0.00549 ± 0.1
14,ATCGGGAC,-0.213 ± 0.022
15,CGTCTCCA,-0.21 ± 0.017
16,CGCAAATA,-0.00213 ± 0.081
17,CCCTCACC,0.245 ± 0.049
18,GGGCGTCA,0.376 ± 0.017
19,GCCGCCAA,0.197 ± 0.016
20,GATTTCAC,0.332 ± 0.023
21,ACGAAATC,0.034 ± 0.072
22,GAACATGC,-0.0884 ± 0.025
